In PubChem BioAssay AID1671193 (National Center for Advancing Translational Sciences (NCATS), 2021):
The whole screen tested about 150,000 compounds, of which about 180 (0.12%) were called active. This list was built around the results that the source calls inconclusive (neither active nor inactive); the mix of calls is not that of the screen. Calls follow the shape of the dose curve; as a rule, active = well fitted cell-killing curve with a large enough effect; inconclusive = small, poorly fitted or top-dose-only effect, or effect the other way; inactive = flat fitted curve, though single readings scatter. Potencies of inconclusive entries are doubtful fits and often do not repeat.

Experiment: GF-AFC viability counterscreen for inhibitors of alpha-synuclein gene (SNCA) expression; also: nearly all actives have a fitted effect of over 30% in size;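 as to activity change, negative = cytotoxicity: 0% = DMSO-treated cells and -100% = medium-only wells without cells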
Conditions: HEK-293-SNCA-luc viability, GF-AFC fluorescence, 24 h; activity change, negative = cytotoxicity: at 57.1 µM (top of the series) unless noted
In short: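 HEK-293-SNCA-luc cells (1500/well) plated 24 h, then exposed 24 h to a dilution series; GF-AFC added 30 min at 37C, fluorescence 405/540 nm; normalised to medium-only and DMSO wells, Hill fit.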
Potency is read from the fitted curve at half-maximal effect; tags tell the direction and shape of the fitted curve.

With CN(C)c1ncc2nc(-c3ccccc3)c(=O)n(C3CC3)c2n1 as the compound, how does the Potency read?
Its Potency is inconclusive: 31.6 µM [rising, partial curve, poor fit].

For Cc1cccc(-c2cccc(CN3CCC(NC(=O)c4ccc(Cl)cc4)CC3)c2)c1, which Potency is on record?
The Potency was inconclusive: 7.94 µM [cytotoxic, single point].

For CNC(=O)[C@@H]1CN(C(=O)c2c(C)noc2C)C[C@H]1COC, which Potency is on record?
Its Potency is inconclusive: 2.82 µM [rising, full curve, poor fit].

With COc1ccc(-c2nnc(C[C@@H]3C[C@@H](C(C)C)[C@H](CO)C=C3C)o2)cc1 as the compound, how does the Potency read?
Its Potency is inconclusive: 20 µM [cytotoxic, partial curve, poor fit].

With COc1ccc(-n2cc(-c3ccccc3)c3c(NCCc4ccc(OC)c(OC)c4)ncnc32)cc1 as the compound, how does the Potency read?
Its Potency is inconclusive: 39.8 µM [cytotoxic, single point].

Which Potency does the source give for CCOC(=O)c1ccc(NC(=O)CC2C(=O)N(c3ccccc3)C(=O)N2C2CCCCC2)cc1 (stereo not given) here?
Its Potency is inconclusive: 5.62 µM [cytotoxic, full curve, poor fit].

For Cc1ccc(-c2nnc(C3CN(C(=O)c4ccccc4C)CC34CCOCC4)o2)cc1 (stereo not given), which Potency is on record?
The Potency was inconclusive: 7.94 µM [cytotoxic, full curve].

For CCc1ccc(NC(=O)C2CC(=O)N(c3n[nH]c4cccc(F)c34)C2)cc1 (stereo not given), which “activity change, negative = cytotoxicity” value is on record?
The value was inactive: 11.7%.

With O=C(C1CCC1)N1CCC(N2CC3CC(C2)[C@H]2CCCC(=O)N2C3)CC1 (stereo not given in full) as the compound, how does the Potency read?
Its Potency is inconclusive: 1 µM [rising, full curve, poor fit].

Which “activity change, negative = cytotoxicity” value does the source give for Cc1ccc(C(=O)N2CCCC(C(=O)N3CCC(N4CCCC4=O)CC3)C2)cc1 (stereo not given) here?
The value was inactive: 5.82%.

With C[S+](=O)([O-])NCc1nnc2n1C(C(=O)NCc1ccccc1)CC2 (stereo not given) as the compound, how does the activity change, negative = cytotoxicity read?
The activity change, negative = cytotoxicity was inactive: 0.071% [at 12.5 µM].

With CC#CCn1cc2c3c(cccc31)[C@H](CC(C)C)N[C@H](C(=O)NCc1ccco1)C2 as the compound, how does the “activity change, negative = cytotoxicity” value read?
The value was inactive: -14.1% [at 87.6 µM].

Which Potency does the source give for Cn1cc(-c2nc3cnc(N4CCNCC4)nc3n(-c3ccccc3)c2=O)c2ccccc21 here?
The Potency was inconclusive: 14.1 µM [rising, partial curve, poor fit].

Which Potency does the source give for CCc1ccc(C(=O)NC2CCN(c3cnn(CC)c(=O)c3)CC2)cc1 here?
The Potency was inconclusive: 39.8 µM [cytotoxic, single point].

For O=C(NCCc1ccccc1)N1CCCCC1c1noc(COCC2CC2)n1 (stereo not given), which Potency is on record?
The Potency was inconclusive: 11.2 µM [cytotoxic, partial curve].

For CN1CCN(c2ncc3nc(-c4ccc(Cl)cc4)c(=O)n(-c4ccccc4)c3n2)CC1, which Potency is on record?
The Potency was inconclusive: 15.8 µM [rising, partial curve, poor fit].

Which Potency does the source give for O=C(Cn1c(=O)n(-c2ccccc2)c(=O)c2sc3ccccc3c21)NC1CCCC1 here?
The Potency was inconclusive: 1.26 µM [cytotoxic, full curve, poor fit].

With Cc1ccc(-n2c(=O)c3ccccc3n(CC(=O)Nc3cccc(C(F)(F)F)c3)c2=O)cc1 as the compound, how does the Potency read?
The Potency was inconclusive: 28.2 µM [cytotoxic, single point].

With O=C(c1cn[nH]c1-c1ccccc1)N1CCC2(CC1)CC(O)CCO2 (stereo not given) as the compound, how does the Potency read?
Its Potency is inconclusive: 1.41 µM [cytotoxic, full curve, poor fit].

For CCN(c1ncnc2c1cnn2-c1cccc(Cl)c1)C1CCCCC1, which “activity change, negative = cytotoxicity” value is on record?
Its value is inactive: -1.57%.

With COc1ccc(-c2nn(-c3ccccc3C)cc2CN2CCCN(C)CC2)cc1F as the compound, how does the Potency read?
Its Potency is inconclusive: 5.62 µM [cytotoxic, full curve, poor fit].

With O=C(c1ccccc1Cl)N1CCC2(CC1)CCN(Cc1cccs1)c1ccccc1O2 as the compound, how does the Potency read?
Its Potency is inconclusive: 1.41 µM [cytotoxic, full curve].

Which Potency does the source give for COc1ccc(CN2CC(COc3ccccc3)C3(C2)CN(c2ccccc2)C3)cc1O (stereo not given) here?
Its Potency is inconclusive: 56.2 µM [cytotoxic, single point].

For Cc1cccc(N2Cc3c(NCCCc4ccccc4)ncnc3N(C)CC2=O)c1, which “activity change, negative = cytotoxicity” value is on record?
The value was inactive: -18.3%.

For CN1CC(=O)N(C2CCCC2)Cc2c1ncnc2N1CCCC1, which “activity change, negative = cytotoxicity” value is on record?
Its value is inactive: -16.7% [at 87.6 µM].

Which “activity change, negative = cytotoxicity” value does the source give for COc1ccc(CN2CCc3nc(C(=O)Nc4ccc(Cl)cc4)oc3CC2)cn1 here?
The value was inactive: -18.6% [at 87.6 µM].

Which Potency does the source give for COc1ccc(C(=O)NCC(c2ccco2)S(=O)(=O)c2cccs2)cc1 (stereo not given) here?
The Potency was inconclusive: 3.98 µM [cytotoxic, full curve, poor fit].

Which “activity change, negative = cytotoxicity” value does the source give for COc1ccc(-c2cc(-c3cnc4[nH]ccc4c3)cn3cncc23)cn1 here?
The value was inactive: -7.15% [at 87.6 µM].

With CCCCN(CCCC)c1nc(-c2ccccc2)nc2ccccc12 as the compound, how does the “activity change, negative = cytotoxicity” value read?
Its value is inactive: 17%.

For Cc1oncc1C(=O)Nc1ccc(C(F)(F)F)cc1, which Potency is on record?
Its Potency is “inactive”.

For CC(=O)N1CC2(CCCCN2Cc2cccc(C(N)=O)c2)Cc2ccccc21 (stereo not given), which Potency is on record?
Its Potency is inconclusive: 39.8 µM [cytotoxic, single point].

With COc1ccc(S(=O)(=O)NC2CCN(c3ccc(=O)n(C)n3)CC2)cc1 as the compound, how does the “activity change, negative = cytotoxicity” value read?
The value was inactive: -0.496%.

With COc1cc(CNCCSc2nnnn2C)ccc1OCc1c(F)cccc1Cl as the compound, how does the Potency read?
The Potency was inconclusive: 20 µM [cytotoxic, partial curve, poor fit].

For COc1ccc(CCC(=O)NCc2ccc3c(c2)CCN3C(=O)c2cccc(C)c2)cc1, which Potency is on record?
Its Potency is inconclusive: 39.8 µM [cytotoxic, single point].

Which “activity change, negative = cytotoxicity” value does the source give for O=C(NCc1ccccc1F)c1nc2cccnc2n(Cc2ccccc2)c1=O here?
The value was inactive: -7.46%.

Which Potency does the source give for CCCSCCCNC(=O)CN1C(=O)COc2ccc(S(=O)(=O)N3CCCCCC3)cc21 here?
The Potency was inconclusive: 14.1 µM [cytotoxic, partial curve, poor fit].

Which Potency does the source give for CCOC(=O)c1c(C)oc2nc(C)nc(NCCc3ccc(S(N)(=O)=O)cc3)c12 here?
Its Potency is inconclusive: 35.5 µM [cytotoxic, partial curve, poor fit].

With C=C1C(=O)O[C@@H]2[C@H]3C(C)=CC(=O)C3=C(C)[C@@H](OC(=O)/C(C)=C\C)[C@H](O)[C@@H]12 as the compound, how does the Potency read?
The Potency was inconclusive: 26.1 µM [cytotoxic, single point].

Which Potency does the source give for O=C(Nc1cccc(F)c1)N1Cc2[nH]cnc2C[C@H]1c1nc(-c2ccc(F)c(Cl)c2)no1 here?
Its Potency is inconclusive: 10 µM [cytotoxic, partial curve, poor fit].

Which Potency does the source give for O=C(CCc1nc(C2CCCN2Cc2ccc3[nH]ccc3c2)no1)N1CCCC1 (stereo not given) here?
The Potency was inconclusive: 39.8 µM [cytotoxic, single point].

For CN(C)S(=O)(=O)N1CC(N2CC(C(=O)N3CCCC3)CC2=O)C1 (stereo not given), which “activity change, negative = cytotoxicity” value is on record?
Its value is inactive: 4.16%.

With COc1cc2c(cc1OC)C(COc1ccc(C(C)C)cc1)N(C(=O)COc1ccccc1)CC2 (stereo not given) as the compound, how does the Potency read?
Its Potency is inconclusive: 10 µM [cytotoxic, partial curve, poor fit].

Which Potency does the source give for COc1ccc(C(=O)N[C@H]2CO[C@H]3[C@@H]2OC[C@H]3OC(=O)Nc2ccccc2)cc1 here?
The Potency was inconclusive: 15.8 µM [cytotoxic, partial curve, poor fit].

Which Potency does the source give for O=C(Nc1cccc(-c2nnc3n2CCCC3)c1)C1CCC1 here?
Its Potency is inconclusive: 2.82 µM [rising, full curve, poor fit].

Which “activity change, negative = cytotoxicity” value does the source give for COc1ccccc1N1CCN(C(=O)c2ccc3c(c2)C(O)CCCCCN3C)CC1 (stereo not given) here?
The value was inactive: -30.1%.

With CCOc1ccc(NC(=O)Cn2c(C)ccc(NC(=O)Nc3ccc(C)cc3)c2=O)cc1 as the compound, how does the “activity change, negative = cytotoxicity” value read?
Its value is inactive: 6.78%.

For COc1ccc(NC(=O)c2nc(S(=O)(=O)Cc3ccc(C)cc3)ncc2Cl)cc1, which Potency is on record?
Its Potency is inconclusive: 25.1 µM [cytotoxic, partial curve, poor fit].

For Cc1ccc(OCc2nc(C3CN(C(=O)c4ccc(Cn5nc(C)cc5C)o4)C3)no2)cc1, which Potency is on record?
Its Potency is inconclusive: 39.8 µM [cytotoxic, single point].

With COc1ccc(-c2cc(N3CCCC(NC(=O)c4cccc(Br)c4)C3)n[nH]2)cc1 (stereo not given) as the compound, how does the Potency read?
The Potency was inconclusive: 39.8 µM [cytotoxic, single point].

With COc1ccc(-c2noc(-c3cccn3CC(=O)N3CCN(c4ccccc4F)CC3)n2)cc1F as the compound, how does the Potency read?
The Potency was inconclusive: 25.1 µM [cytotoxic, partial curve, poor fit].

For CC(C)C(=O)N1CCn2c(nnc2C2CCN(Cc3ccc(F)cc3F)C2)C1 (stereo not given), which “activity change, negative = cytotoxicity” value is on record?
The value was inactive: 3.59%.

With CCc1ccc(S(=O)(=O)c2cnc(SCC(=O)Nc3ccc(OC)cc3OC)[nH]c2=O)cc1 as the compound, how does the “activity change, negative = cytotoxicity” value read?
The value was inactive: 24%.

For Cc1ccc2nc(NC(=O)CSc3ncc(C(=O)Nc4ccccc4)c(=O)n3C)sc2c1, which “activity change, negative = cytotoxicity” value is on record?
The value was inactive: -0.502%.

Which Potency does the source give for O=C(CCS(=O)(=O)c1nc(-c2cccs2)cc(C(F)(F)F)n1)Nc1cccc(O)c1 here?
Its Potency is inconclusive: 17.8 µM [cytotoxic, partial curve].

Which “activity change, negative = cytotoxicity” value does the source give for Cc1nc(C2CC23CCN(S(=O)(=O)c2c(C)noc2C)CC3)no1 (stereo not given) here?
The value was inactive: 1.94%.

Which “activity change, negative = cytotoxicity” value does the source give for Cc1nn(C(=O)CCCC(=O)N2CCC(Cc3nncn3-c3ccccc3)CC2)c2ccccc12 here?
The value was inactive: 4.48%.

With COCCn1c(=O)c(-c2cccc(C#N)c2)nc2cnc(N3CCOCC3)nc21 as the compound, how does the Potency read?
Its Potency is inconclusive: 22.4 µM [rising, single point].

With O=C(Nc1ccc(F)c(Cl)c1)C1CCc2sc(C(=O)N3CCOCC3)cc2C1 (stereo not given) as the compound, how does the “activity change, negative = cytotoxicity” value read?
Its value is inactive: -23.7%.

With Cc1cc(-c2nc3ccccc3s2)ccc1NC(=O)c1cc(Cl)ccc1Cl as the compound, how does the “activity change, negative = cytotoxicity” value read?
Its value is inactive: 0.413%.

Which Potency does the source give for COc1ccccc1OC1(C(=O)O)CCN(Cc2cnn(C)c2C)CC1 here?
Its Potency is inconclusive: 1 µM [rising, full curve, poor fit].

For CCOC(=O)N1CCc2c(sc(NCc3sccc3C)c2C(=O)Nc2ccccc2OCC)C1, which Potency is on record?
Its Potency is inconclusive: 7.08 µM [cytotoxic, single point].

For O=C(NCCCc1ccccc1)c1n[nH]c2c1CN(C(=O)c1ccccc1F)CC2, which Potency is on record?
Its Potency is inconclusive: 25.1 µM [rising, single point].

Which Potency does the source give for O=C(NCc1cccc(C(F)(F)F)c1)c1ccc2nnc(-c3cc(C(F)(F)F)cc(C(F)(F)F)c3)n2c1 here?
Its Potency is inconclusive: 28.2 µM [cytotoxic, single point].

Which “activity change, negative = cytotoxicity” value does the source give for O=C(c1ccc(F)cc1)N1CCC(n2cc(-c3nc(-c4ccccc4)no3)nn2)CC1 here?
The value was inactive: 7.5%.

Which Potency does the source give for CC(C)c1nnc(NC(=O)c2nc(S(=O)(=O)Cc3ccccc3)ncc2Cl)s1 here?
Its Potency is active: 22.4 µM.
